Experimental data taken from publication PMC10903983, “Inducing mitochondriopathy-like damages by transformable nucleopeptide nanoparticles for targeted therapy of bladder cancer” (National Science Review, 2024).

Test system: T24 xenograft mice
Assay: In vivo antitumor evaluation with SN-38 and T-ATP controls, T24 xenograft
Settings: 24 days post-injection; SN38 5 mg/kg; T-ATP and NLS-FF-T 500 μM in 200 μL PBS
Experimental: Fig. S23. (a) Average tumor growth curves of T24 xenograft mice after treated with PBS, SN38 (5 mg/kg),
(b) Body weights of T24 xenograft mice after different
(1 picture or pasted object on this page, not shown here)

SMILES: CCc1c2c(nc3ccc(O)cc13)-c1cc3c(c(=O)n1C2)COC(=O)[C@]3(O)CC [SN38, SN-38]
- tumor growth / antitumor efficacy: moderate antitumor efficacy
